T1: human CD19 on B cell lymphoma and leukemia cell lines (human, UniProt P15391 20-556)
T1 construct: also called SU-DHL-8; Nalm6
T1 sequence: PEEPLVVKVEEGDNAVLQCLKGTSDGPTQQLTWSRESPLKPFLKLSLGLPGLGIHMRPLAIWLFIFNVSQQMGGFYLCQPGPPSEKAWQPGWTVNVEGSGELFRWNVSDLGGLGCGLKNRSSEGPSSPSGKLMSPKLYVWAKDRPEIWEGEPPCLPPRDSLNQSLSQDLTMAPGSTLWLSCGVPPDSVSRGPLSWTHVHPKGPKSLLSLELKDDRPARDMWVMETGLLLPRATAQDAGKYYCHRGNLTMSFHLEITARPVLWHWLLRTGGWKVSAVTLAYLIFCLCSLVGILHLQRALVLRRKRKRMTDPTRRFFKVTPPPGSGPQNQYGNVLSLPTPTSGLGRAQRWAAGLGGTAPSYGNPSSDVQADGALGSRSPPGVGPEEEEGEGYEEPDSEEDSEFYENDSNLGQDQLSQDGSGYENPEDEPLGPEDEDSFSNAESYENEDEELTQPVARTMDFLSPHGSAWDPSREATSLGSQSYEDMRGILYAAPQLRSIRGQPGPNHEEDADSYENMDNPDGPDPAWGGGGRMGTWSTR

B1: monovalent CD19(8B8-018) targeted split trimeric 4-1BB ligand (71-248) Fc (kih) fusion containing CH-CL cross with charged residues (construct 3.4) (Fc fusion)
chain 1: REGPELSPDDPAGLLDLRQGMFAQLVAQNVLLIDGPLSWYSDPGLAGVSLTGGLSYKEDTKELVVAKAGVYYVFFQLELRRVVAGEGSGSVSLALHLQPLRSAAGAAALALTVDLPPASSEARNSAFGFQGRLLHLSAGQRLGVHLHTEARARHAWQLTQGATVLGLFRVTPEIPAGLGGGGSGGGGSREGPELSPDDPAGLLDLRQGMFAQLVAQNVLLIDGPLSWYSDPGLAGVSLTGGLSYKEDTKELVVAKAGVYYVFFQLELRRVVAGEGSGSVSLALHLQPLRSAAGAAALALTVDLPPASSEARNSAFGFQGRLLHLSAGQRLGVHLHTEARARHAWQLTQGATVLGLFRVTPEIPAGLGGGGSGGGGSRTVAAPSVFIFPPSDRKLKSGTASVVCLLNNFYPREAKVQWKVDNALQSGNSQESVTEQDSKDSTYSLSSTLTLSKADYEKHKVYACEVTHQGLSSPVTKSFNRGE[no letters for human IgG1 Fc with changes]
chain 2: REGPELSPDDPAGLLDLRQGMFAQLVAQNVLLIDGPLSWYSDPGLAGVSLTGGLSYKEDTKELVVAKAGVYYVFFQLELRRVVAGEGSGSVSLALHLQPLRSAAGAAALALTVDLPPASSEARNSAFGFQGRLLHLSAGQRLGVHLHTEARARHAWQLTQGATVLGLFRVTPEIPAGLGGGGSGGGGSASTKGPSVFPLAPSSKSTSGGTAALGCLVEDYFPEPVTVSWNSGALTSGVHTFPAVLQSSGLYSLSSVVTVPSSSLGTQTYICNVNHKPSNTKVDEKVEPKSC
heavy: QVQLVQSGAEVKKPGASVKVSCKASGYTFTDYIMHWVRQAPGQGLEWMGYINPYNDGSKYTEKFQGRVTMTSDTSISTAYMELSRLRSDDTAVYYCARGTYYYGSALFDYWGQGTTVTVSSASTKGPSVFPLAPSSKSTSGGTAALGCLVKDYFPEPVTVSWNSGALTSGVHTFPAVLQSSGLYSLSSVVTVPSSSLGTQTYICNVNHKPSNTKVDKKVEPKSCDKTHTCPPCPAPEAAGGPSVFLFPPKPKDTLMISRTPEVTCVVVDVSHEDPEVKFNWYVDGVEVHNAKTKPREEQYNSTYRVVSVLTVLHQDWLNGKEYKCKVSNKALGAPIEKTISKAKGQPREPQVCTLPPSRDELTKNQVSLSCAVKGFYPSDIAVEWESNGQPENNYKTTPPVLDSDGSFFLVSKLTVDKSRWQQGNVFSCSVMHEALHNHYTQKSLSLSPGK
light: DIVMTQTPLSLSVTPGQPASISCKSSQSLENPNGNTYLNWYLQKPGQSPQLLIYRVSKRFSGVPDRFSGSGSGTDFTLKISRVEAEDVGVYYCLQLTHVPYTFGQGTKLEIKRTVAAPSVFIFPPSDEQLKSGTASVVCLLNNFYPREAKVQWKVDNALQSGNSQESVTEQDSKDSTYSLSSTLTLSKADYEKHKVYACEVTHQGLSSPVTKSFNRGEC
B2: bivalent CD19(8B8-018) targeted split trimeric 4-1BB ligand (71-248) Fc (kih) fusion (construct 3.6) (Fc fusion)
heavy 1: QVQLVQSGAEVKKPGASVKVSCKASGYTFTDYIMHWVRQAPGQGLEWMGYINPYNDGSKYTEKFQGRVTMTSDTSISTAYMELSRLRSDDTAVYYCARGTYYYGSALFDYWGQGTTVTVSSASTKGPSVFPLAPSSKSTSGGTAALGCLVKDYFPEPVTVSWNSGALTSGVHTFPAVLQSSGLYSLSSVVTVPSSSLGTQTYICNVNHKPSNTKVDKKVEPKSCDKTHTCPPCPAPEAAGGPSVFLFPPKPKDTLMISRTPEVTCVVVDVSHEDPEVKFNWYVDGVEVHNAKTKPREEQYNSTYRVVSVLTVLHQDWLNGKEYKCKVSNKALGAPIEKTISKAKGQPREPQVCTLPPSRDELTKNQVSLSCAVKGFYPSDIAVEWESNGQPENNYKTTPPVLDSDGSFFLVSKLTVDKSRWQQGNVFSCSVMHEALHNHYTQKSLSLSPGGGGGSGGGGSREGPELSPDDPAGLLDLRQGMFAQLVAQNVLLIDGPLSWYSDPGLAGVSLTGGLSYKEDTKELVVAKAGVYYVFFQLELRRVVAGEGSGSVSLALHLQPLRSAAGAAALALTVDLPPASSEARNSAFGFQGRLLHLSAGQRLGVHLHTEARARHAWQLTQGATVLGLFRVTPEIPAGLGGGGSGGGGSREGPELSPDDPAGLLDLRQGMFAQLVAQNVLLIDGPLSWYSDPGLAGVSLTGGLSYKEDTKELVVAKAGVYYVFFQLELRRVVAGEGSGSVSLALHLQPLRSAAGAAALALTVDLPPASSEARNSAFGFQGRLLHLSAGQRLGVHLHTEARARHAWQLTQGATVLGLFRVTPEIPAGL
heavy 2: QVQLVQSGAEVKKPGASVKVSCKASGYTFTDYIMHWVRQAPGQGLEWMGYINPYNDGSKYTEKFQGRVTMTSDTSISTAYMELSRLRSDDTAVYYCARGTYYYGSALFDYWGQGTTVTVSSASTKGPSVFPLAPSSKSTSGGTAALGCLVKDYFPEPVTVSWNSGALTSGVHTFPAVLQSSGLYSLSSVVTVPSSSLGTQTYICNVNHKPSNTKVDKKV[no letters for human IgG1 Fc with changes]GGGGSGGGGSREGPELSPDDPAGLLDLRQGMFAQLVAQNVLLIDGPLSWYSDPGLAGVSLTGGLSYKEDTKELVVAKAGVYYVFFQLELRRVVAGEGSGSVSLALHLQPLRSAAGAAALALTVDLPPASSEARNSAFGFQGRLLHLSAGQRLGVHLHTEARARHAWQLTQGATVLGLFRVTPEIPAGL
light: B1 light
B3: bivalent CD19(8B8-018) targeted split trimeric 4-1BB ligand (71-254) Fc (kih) fusion (construct 3.3) (Fc fusion)
heavy 1: QVQLVQSGAEVKKPGASVKVSCKASGYTFTDYIMHWVRQAPGQGLEWMGYINPYNDGSKYTEKFQGRVTMTSDTSISTAYMELSRLRSDDTAVYYCARGTYYYGSALFDYWGQGTTVTVSSASTKGPSVFPLAPSSKSTSGGTAALGCLVKDYFPEPVTVSWNSGALTSGVHTFPAVLQSSGLYSLSSVVTVPSSSLGTQTYICNVNHKPSNTKVDKKVEPKSCDKTHTCPPCPAPEAAGGPSVFLFPPKPKDTLMISRTPEVTCVVVDVSHEDPEVKFNWYVDGVEVHNAKTKPREEQYNSTYRVVSVLTVLHQDWLNGKEYKCKVSNKALGAPIEKTISKAKGQPREPQVCTLPPSRDELTKNQVSLSCAVKGFYPSDIAVEWESNGQPENNYKTTPPVLDSDGSFFLVSKLTVDKSRWQQGNVFSCSVMHEALHNHYTQKSLSLSPGGGGGSGGGGSREGPELSPDDPAGLLDLRQGMFAQLVAQNVLLIDGPLSWYSDPGLAGVSLTGGLSYKEDTKELVVAKAGVYYVFFQLELRRVVAGEGSGSVSLALHLQPLRSAAGAAALALTVDLPPASSEARNSAFGFQGRLLHLSAGQRLGVHLHTEARARHAWQLTQGATVLGLFRVTPEIPAGLPSPRSEGGGGSGGGGSREGPELSPDDPAGLLDLRQGMFAQLVAQNVLLIDGPLSWYSDPGLAGVSLTGGLSYKEDTKELVVAKAGVYYVFFQLELRRVVAGEGSGSVSLALHLQPLRSAAGAAALALTVDLPPASSEARNSAFGFQGRLLHLSAGQRLGVHLHTEARARHAWQLTQGATVLGLFRVTPEIPAGLPSPRSE
heavy 2: QVQLVQSGAEVKKPGASVKVSCKASGYTFTDYIMHWVRQAPGQGLEWMGYINPYNDGSKYTEKFQGRVTMTSDTSISTAYMELSRLRSDDTAVYYCARGTYYYGSALFDYWGQGTTVTVSSASTKGPSVFPLAPSSKSTSGGTAALGCLVKDYFPEPVTVSWNSGALTSGVHTFPAVLQSSGLYSLSSVVTVPSSSLGTQTYICNVNHKPSNTKVDKKV[no letters for human IgG1 Fc with changes]GGGGSGGGGSREGPELSPDDPAGLLDLRQGMFAQLVAQNVLLIDGPLSWYSDPGLAGVSLTGGLSYKEDTKELVVAKAGVYYVFFQLELRRVVAGEGSGSVSLALHLQPLRSAAGAAALALTVDLPPASSEARNSAFGFQGRLLHLSAGQRLGVHLHTEARARHAWQLTQGATVLGLFRVTPEIPAGLPSPRSE
light: B1 light

Experiments:
[1] = biological target: T1, human CD19 on B cell lymphoma and …; test: flow cytometry on OCI-Ly18 cells
[2] = biological target: T2, human 4-1BB (CD137) on cells (human, UniProt Q07011 24-255); test: flow cytometry on activated human PBMC, 4-1BB+ CD4+ T cells
T2 construct: whole, on cells; also called 4-1BB+CD8+; 4-1BB+CD4+

[3] = biological target: T1, human CD19 on B cell lymphoma and …; test: flow cytometry on Toledo cells
[4] = biological target: T1, human CD19 on B cell lymphoma and …; test: flow cytometry on Nalm6 cells
[5] = biological target: T1, human CD19 on B cell lymphoma and …; test: flow cytometry on SU-DHL-8 cells
[6] = biological target: T3, monomeric human 4-1BB avi His (human); test: SPR Biacore T200, construct captured via anti-human Fab, 4-1BB avi His analyte, mean of two runs
T3 construct: ectodomain of human 4-1BB with avi and hexahistidine tags; also called hu4-1BB avi His; hu4-1BB

[7] = biological target: T4, recombinant cynomolgus 4-1BB avi His (cynomolgus, UniProt O95905); test: as above
T4 construct: also called cy 4-1BB; cy4-1BB

[8] = biological target: T2, human 4-1BB (CD137) on cells; test: flow cytometry on activated human PBMC, 4-1BB+ CD8+ T cells

| Binder | EC50 [1] | EC50 [2] | EC50 [3] | EC50 [4] | EC50 [5] | Kd [6] | koff [6] | kon [6] | Kd [7] | koff [7] | kon [7] | EC50 [8] |
| --- | --- | --- | --- | --- | --- | --- | --- | --- | --- | --- | --- | --- |
| B1 | 0.26 nM | 2.04 nM | 0.29 nM | 0.39 nM | 0.31 nM | 340 nM | 0.025 s⁻¹ | 72000 M⁻¹ s⁻¹ | 110 nM | 0.013 s⁻¹ | 120000 M⁻¹ s⁻¹ | 0.15 nM |
| B2 | 0.1 nM | 0.21 nM | 0.09 nM | 0.12 nM | 0.14 nM | 350 nM | 0.024 s⁻¹ | 69000 M⁻¹ s⁻¹ | 130 nM | 0.014 s⁻¹ | 110000 M⁻¹ s⁻¹ | 0.05 nM |
| B3 | 0.09 nM | 0.29 nM | 0.1 nM | 0.14 nM | 0.15 nM |  |  |  |  |  |  | 0.01 nM |

— US20250101135A1 (Hoffmann-La Roche, published 2025)
